Our source for the IC50 values is US7265102B2 (priority 2000, dated 2007).

The target in this experiment is Recombinant human cathepsin S (CatS) (Homo sapiens, UniProt P25774). In words: biochemical.
As to `CS(=O)(=O)N1CCc2c(c(-c3ccc(C(F)(F)F)cc3)nn2CCCN2CCC(c3c[nH]c4ccc(Cl)cc34)CC2)C1` [Example 103, 1-{3-[4-(5-Chloro-1H-indol-3-yl)-piperidin-1-yl]-propyl}-5-methanesulfonyl-3-(4-trifluoromethyl-phenyl)-4,5,6,7-tetrahydro-1H-pyrazolo[4,3-c]pyridine], the 50% inhibitory concentration (IC50) turned out to be 0.16 µM.
The value for `CC(=O)N1CCc2c(c(-c3ccc(Br)cc3)nn2CC(O)CN2CCC(c3c[nH]c4ccncc34)CC2)C1` (stereo not drawn) [Example 125, 1-(3-(4-Bromo-phenyl)-1-{2-hydroxy-3-[4-(1H-pyrrolo[3,2-c]pyridin-3-yl)-piperidin-1-yl]-propyl}-1,4,6,7-tetrahydro-pyrazolo[4,3-c]pyridin-5-yl)-ethanone] was 0.21 µM; that for `CN(C)C(=O)c1sc2cc(F)ccc2c1C1CCN(CCCn2nc(-c3ccc(C(F)(F)F)cc3)c3c2CCN(S(C)(=O)=O)C3)CC1` [Example 133, 6-Fluoro-3-(1-{3-[5-methanesulfonyl-3-(4-trifluoromethyl-phenyl)-4,5,6,7-tetrahydro-pyrazolo[4,3-c]pyridin-1-yl]-propyl}-piperidin-4-yl)-benzo[b]thiophene-2-carboxylic acid dimethylamide] was 0.38 µM.
As for `CS(=O)(=O)N1CCc2c(c(-c3ccc(C(F)(F)F)cc3)nn2CCCN2CC=C(c3c[nH]c4ncccc34)CC2)C1` [Example 115, 5-Methanesulfonyl-1-{3-[4-(1H-pyrrolo[2,3-b]pyridin-3-yl)-3,6-dihydro-2H-pyridin-1-yl]-propyl}-3-(4-trifluoromethyl-phenyl)-4,5,6,7-tetrahydro-1H-pyrazolo[4,3-c]pyridine], the figure is 0.59 µM; as for `CC(=O)N1CCc2c(c(-c3ccc(Cl)c(C)c3)nn2CC(O)CN2CCC(c3c[nH]c4ccccc34)CC2)C1` (stereo not drawn) [Example 101, 1-(3-(4-Chloro-3-methyl-phenyl)-1-{2-hydroxy-3-[4-(1H-indol-3-yl)-piperidin-1-yl]-propyl}-1,4,6,7-tetrahydro-pyrazolo[4,3-c]pyridin-5-yl)-ethanone], 0.25 µM.
The value for `CC(=O)N1CCc2c(c(-c3ccc(C(F)(F)F)cc3)nn2CC(O)CN2CCC(c3coc4cc(F)ccc34)CC2)C1` (stereo not drawn) [Example 131, 1-[1-{3-[4-(6-Fluoro-benzofuran-3-yl)-piperidin-1-yl]-2-hydroxy-propyl}-3-(4trifluoromethyl-phenyl)-1,4,6,7-tetrahydro-pyrazolo[4,3-c]pyridin-5-yl]-ethanone] was 0.37 µM.
Take `CS(=O)(=O)N1CCc2c(c(-c3ccc(C(F)(F)F)cc3)nn2CC(O)CN2CCC(c3cn(S(C)(=O)=O)c4cc(Cl)ccc34)CC2)C1` (stereo not drawn) [Example 106, 1-[4-(6-Chloro-1-methanesulfonyl-1H-indol-3-yl)-piperidin-1-yl]-3-[5-methanesulfonyl-3-(4-trifluoromethyl-phenyl)-4,5,6,7-tetrahydro-pyrazolo[4,3-c]pyridin-1-yl]-propan-2-ol]: the IC50 was 0.2 µM.
The value for `CS(=O)(=O)N1CCc2c(c(-c3ccc(Br)cc3)nn2CC(O)CN2CCC(c3cn(CCN4CCOCC4)c4cc(Cl)ccc34)CC2)C1` (stereo not drawn) [Example 109, 1-[3-(4-Bromo-phenyl)-5-methanesulfonyl-4,5,6,7-tetrahydro-pyrazolo[4,3-c]pyridin-1-yl]-3-{4-[6-chloro-1-(2-morpholin-4-yl-ethyl)-1H-indol-3-yl]-piperidin-1-yl}-propan-2-ol] was 0.08 µM; that for `CS(=O)(=O)N1CCc2c(c(-c3ccc(C(F)(F)F)cc3)nn2CC(O)CN2CCC(c3c[nH]c4nc(Cl)ccc34)CC2)C1` (stereo not drawn) [Example 120, 1-[4-(6-Chloro-1H-pyrrolo[2,3-b]pyridin-3-yl)-piperidin-1-yl]-3-[5-methanesulfonyl-3-(4-trifluoromethyl-phenyl)-4,5,6,7-tetrahydro-pyrazolo[4,3-c]pyridin-1-yl]-propan-2-ol] was 0.25 µM.
As for `COC(=O)n1cc(C2CCN(CC(O)Cn3nc(-c4ccc(C(F)(F)F)cc4)c4c3CCN(S(C)(=O)=O)C4)CC2)c2ccc(Cl)nc21` (stereo not drawn) [Example 119, 6-Chloro-3-(1-{2-hydroxy-3-[5-methanesulfonyl-3-(4-trifluoromethyl-phenyl)-4,5,6,7-tetrahydro-pyrazolo[4,3-c]pyridin-1-yl]-propyl}-piperidin-4-yl)-pyrrolo[2,3-b]pyridine-1-carboxylic acid methyl ester], the figure is 0.69 µM; as for `CS(=O)(=O)N1CCc2c(c(-c3ccc(Br)cc3)nn2CC(O)CN2CCC(c3c[nH]c4ncccc34)CC2)C1` (stereo not drawn) [Example 112, 1-[3-(4-Bromo-phenyl)-5-methanesulfonyl-4,5,6,7-tetrahydro-pyrazolo[4,3-c]pyridin-1-yl]-3-[4-(1H-pyrrolo[2,3-b]pyridin-3-yl)-piperidin-1-yl]-propan-2-ol], 0.13 µM.
The value for `CC(=O)N1CCc2c(c(-c3ccc(C(F)(F)F)cc3)nn2CC(O)CN2CCC(c3c(C#N)sc4cc(F)ccc34)CC2)C1` (stereo not drawn) [Example 134, 3-(1-{3-[5-Acetyl-3-(4-trifluoromethyl-phenyl)-4,5,6,7-tetrahydro-pyrazolo[4,3-c]pyridin-1-yl]-2-hydroxy-propyl}-piperidin-4-yl)-6-fluoro-benzo[b]thiophene-2-carbonitrile] was 0.38 µM; that for `CS(=O)(=O)N1CCc2c(c(-c3ccc(C(F)(F)F)cc3)nn2CC(O)CN2CCC(c3c(C#N)sc4cc(F)ccc34)CC2)C1` (stereo not drawn) [Example 135, 6-Fluoro-3-(1-{2-hydroxy-3-[5-methanesulfonyl-3-(4-trifluoromethyl-phenyl)-4,5,6,7-tetrahydro-pyrazolo[4,3-c]pyridin-1-yl]-propyl}-piperidin-4-yl)-benzo[b]thiophene-2-carbonitrile] was 0.21 µM.
Regarding `CS(=O)(=O)N1CCc2c(c(-c3ccc(C(F)(F)F)cc3)nn2CCCN2CCC(c3c(C(N)=O)sc4cc(F)ccc34)CC2)C1` [Example 35, 6-Fluoro-3-(1-{3-[5-methanesulfonyl-3-(4-trifluoromethyl-phenyl)-4,5,6,7-tetrahydro-pyrazolo[4,3-c]pyridin-1-yl]-propyl}-piperidin-4-yl)benzo[b]thiophene-2-carboxylic acid amide], the half-maximal inhibitory concentration (IC50) was 0.03 µM.
On to `CC(=O)N1CCc2c(c(-c3ccc(C(F)(F)F)cc3)nn2CC(O)CN2CCC(c3c[nH]c4ccncc34)CC2)C1` (stereo not drawn) [Example 123, 1-[1-{2-Hydroxy-3-[4-(1H-pyrrolo[3,2-c]pyridin-3-yl)-piperidin-1-yl]-propyl}-3-(4-trifluoromethyl-phenyl)-1,4,6,7-tetrahydro-pyrazolo[4,3-c]pyridin-5-yl]-ethanone], for which the IC50 came out at 0.15 µM.
As for `CC(=O)N1CCc2c(c(-c3ccc(Br)cc3)nn2CC(O)CN2CCC(c3cn(CCN4CCOCC4)c4ncccc34)CC2)C1` (stereo not drawn) [Example 118, 1-[3-(4-Bromo-phenyl)-1-(2-hydroxy-3-{4-[1-(2-morpholin-4-yl-ethyl)-1H-pyrrolo[2,3-b]pyridin-3-yl]-piperidin-1-yl}-propyl)-1,4,6,7-tetrahydro-pyrazolo[4,3-c]pyridin-5-yl]-ethanone], the figure is 0.26 µM; as for `COC(=O)c1oc2cc(F)ccc2c1C1CCN(CC(O)Cn2nc(-c3ccc(C(F)(F)F)cc3)c3c2CCN(C(C)=O)C3)CC1` (stereo not drawn) [Example 128, 3-(1-{3-[5-Acetyl-3-(4-trifluoromethyl-phenyl)-4,5,6,7-tetrahydro-pyrazolo[4,3c]pyridin-1-yl]-2-hydroxy-propyl}-piperidin-4-yl)-6-fluoro-benzofuran-2-carboxylic acid methyl ester], 0.23 µM.
The value for `CS(=O)(=O)N1CCc2c(c(-c3ccc(Br)cc3)nn2CC(O)CN2CCC(c3c[nH]c4ccc(C#N)cc34)CC2)C1` (stereo not drawn) [Example 108, 3-(1-{3-[3-(4-Bromo-phenyl)-5-methanesulfonyl-4,5,6,7-tetrahydro-pyrazolo[4,3-c]pyridin-1-yl]-2-hydroxy-propyl}-piperidin-4-yl)-1H-indole-5-carbonitrile] was 0.04 µM; that for `CS(=O)(=O)N1CCc2c(c(-c3ccc(Br)cc3)nn2CC(O)CN2CCC(c3cn(CCN4CCOCC4)c4ncccc34)CC2)C1` (stereo not drawn) [Example 117, 1-[3-(4-Bromo-phenyl)-5-methanesulfonyl-4,5,6,7-tetrahydro-pyrazolo[4,3-c]pyridin-1-yl]-3-{4-[1-(2-morpholin-4-yl-ethyl)-1H-pyrrolo[2,3-b]pyridin-3-yl]-piperidin-1-yl}-propan-2-ol] was 0.1 µM; that for `CC(=O)N1CCc2c(c(-c3ccc(Br)cc3)nn2CC(O)CN2CCC(c3c[nH]c4ncccc34)CC2)C1` (stereo not drawn) [Example 113, 1-(3-(4-Bromo-phenyl)-1-{2-hydroxy-3-[4-(1H-pyrrolo[2,3-b]pyridin-3-yl)-piperidin-1-yl]-propyl}-1,4,6,7-tetrahydro-pyrazolo[4,3-c]pyridin-5-yl)-ethanone] was 0.2 µM.
The value for `CS(=O)(=O)N1CCc2c(c(-c3ccc(C(F)(F)F)cc3)nn2CC(O)CN2CCC(c3csc4cc(F)ccc34)CC2)C1` (stereo not drawn) [Example 130, 1-[4-(6-Fluoro-benzo[b]thiophen-3-yl)-piperidin-1-yl]-3-[5-methanesulfonyl-3-(4trifluoromethyl-phenyl)-4,5,6,7-tetrahydro-pyrazolo[4,3-c]pyridin-1-yl]-propan-2-ol] was 0.19 µM.
